The full ranking holds about 110,000 compounds; the median of “z-score” is about -0.1, and the highest 2% start at about 2. The list shows a part of the results. The source made the active and inactive calls.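 The calls were made as follows: active = z-score in the third read window above 3 or below -3; inactive = the rest.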
target: Metabotropic glutamate receptor 8 (Rattus norvegicus) (UniProt P70579); experiment: mGluR8 Gi/Go-coupled signaling modulation – cell-based, rat, thallium flux, HTS, primary screen (AID 488969); conditions: HEK293 rat mGluR8, GIRK (G protein-gated inwardly rectifying potassium channel) thallium flux, FluoZin2; at 10 µM; stronger effect = higher value; submaximal glutamate (EC20) added with thallium
Sequence of UniProt P70579 (P70579 whole entry, looked up): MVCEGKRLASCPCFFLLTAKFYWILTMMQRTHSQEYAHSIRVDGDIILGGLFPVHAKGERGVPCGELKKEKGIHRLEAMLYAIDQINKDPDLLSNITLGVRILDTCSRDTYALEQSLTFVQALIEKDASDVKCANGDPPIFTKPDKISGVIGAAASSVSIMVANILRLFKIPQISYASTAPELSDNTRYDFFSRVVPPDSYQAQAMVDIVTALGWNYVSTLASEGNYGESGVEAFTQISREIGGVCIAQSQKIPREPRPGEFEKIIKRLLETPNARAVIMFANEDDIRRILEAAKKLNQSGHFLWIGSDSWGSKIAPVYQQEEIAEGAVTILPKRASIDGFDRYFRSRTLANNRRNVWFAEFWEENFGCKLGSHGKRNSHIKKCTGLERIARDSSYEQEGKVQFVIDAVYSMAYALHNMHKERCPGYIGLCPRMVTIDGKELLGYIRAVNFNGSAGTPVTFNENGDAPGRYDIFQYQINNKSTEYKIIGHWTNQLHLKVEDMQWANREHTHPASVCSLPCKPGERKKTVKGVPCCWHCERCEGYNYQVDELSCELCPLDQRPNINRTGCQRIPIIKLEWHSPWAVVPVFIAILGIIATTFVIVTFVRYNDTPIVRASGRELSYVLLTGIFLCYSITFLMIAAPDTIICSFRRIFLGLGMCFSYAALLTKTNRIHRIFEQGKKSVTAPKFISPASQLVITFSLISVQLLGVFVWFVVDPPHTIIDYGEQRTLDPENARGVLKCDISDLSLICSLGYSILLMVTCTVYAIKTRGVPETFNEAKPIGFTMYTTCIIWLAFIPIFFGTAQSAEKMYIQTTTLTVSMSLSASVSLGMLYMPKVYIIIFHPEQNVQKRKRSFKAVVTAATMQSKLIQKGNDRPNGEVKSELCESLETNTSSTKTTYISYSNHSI

First: COc1ccc(N2CCN(CC(=O)Nc3nnc(-c4ccccc4)s3)CC2)cc1
Second: COc1ccc(-c2nnc(SCC(=O)NC(C)c3ccccc3)o2)cc1 (stereo not given)
The z-score of the first is higher: 0.751 for the first, -0.309 for the second.

Compared with `CCCCn1c(NC(=O)CC)c(C#N)c2nc3ccccc3nc21`, `CCCCn1c(SCc2cccnc2)nc2c1c(=O)n(C)c(=O)n2C` is higher in z-score: -0.751 for the first, -0.459 for the second.

Compared with `COc1cc(CN(C)Cc2ccccc2)cc(OC)c1O`, `COc1ccc(CCNC(=O)C(C)Sc2ccccc2)cc1OC` (stereo not given) is lower in z-score: 0.167 for the first, -0.118 for the second.

Compared with `CCN(Cc1ccccc1)C(=O)C1CCC(CNc2c(N3CCOCC3)c(=O)c2=O)CC1` (stereo not given), `Cc1cccc2cc(CN(Cc3ccccc3)C(=O)N3CCOCC3)c3nnnn3c12` is lower in z-score: 0.127 for the first, -0.613 for the second.

Going from `O=C(CNC(=O)C(c1ccccc1)c1ccccc1)N/N=C/c1ccc(O)c([N+](=O)[O-])c1` to `COC(=O)CNC(c1ccccc1)c1cc(C)ccc1NC(=O)CNC(=O)OCc1ccccc1` (stereo not given), the z-score rises from -0.819 to -0.608.

First: C=CCn1c(SCC(=O)Nc2c(C)n(C)n(-c3ccccc3)c2=O)nc2sc(C)c(C)c2c1=O
Second: Cc1c(NC(=O)CSc2nnc(-c3cccc(Cl)c3)o2)c(=O)n(-c2ccccc2)n1C
The z-score of the first is lower: -0.594 for the first, 0.0966 for the second.

Going from `COCCN1C(=O)N(c2cccc(C)c2)C(=O)C1CC(=O)Nc1ccc(F)cc1` (stereo not given) to `CCOc1ccc(N(CC(=O)Nc2cccc(F)c2)S(=O)(=O)c2c(C)noc2C)cc1`, the z-score falls from 0.255 to -0.118.

Going from `Cc1nn2c(-c3cccc(NC(=O)CSc4nc5ccccc5o4)c3)nnc2c2ccccc12` to `O=C(CSc1nc2ccccc2o1)N1c2ccccc2Sc2ccccc21`, the z-score falls from 0.406 to 0.265.

First: CC1(C)CC(=O)C=C(Nc2ccc(C(=O)O)cc2)C1
Second: CC(=O)N1CCN(c2ccc(NC(=O)c3ccc(C)cc3)cc2)CC1
The z-score of the first is lower: 0.0594 for the first, 0.245 for the second.

First: CN(c1ccc(Cl)cc1)c1cc(=O)n(C)c2ccccc12
Second: O=C1c2ccccc2C(=O)N1CCc1csc(-c2cccc(Cl)c2)n1
The z-score of the first is lower: -0.43 for the first, 0.0755 for the second.

Going from `Fc1ccccc1OCCCN1CCOCC1` to `O=S(=O)(c1ccccc1)c1nc(-c2ccco2)oc1NCCN1CCOCC1`, the z-score rises from -0.161 to -0.00728.

Compared with `Cc1noc(C)c1COc1cccc(C(=O)Nc2ccc(OCc3ccccc3)cc2)c1`, `Cc1ccc(C(=O)NC(=S)Nc2ccc(S(=O)(=O)N(C)c3ccccc3)cc2)cc1` is higher in z-score: -0.0143 for the first, 0.95 for the second.

First: Cn1nc(C(F)(F)F)c2cc(C(=O)Nc3ccc(Cl)cc3)sc21
Second: Cc1nc(NNC(=O)c2ccc(Cl)cc2Cl)cc(-c2ccccc2)n1
The z-score of the first is higher: 0.176 for the first, 0.141 for the second.

Compared with `CC(C)Nc1nc(NC(C)C)nc(OCCOC(=O)Nc2ccccc2)n1`, `CC(C)CN(CC(C)C)C(=O)Cc1coc2ccc3ccccc3c12` is higher in z-score: -0.861 for the first, 0.549 for the second.

First: O=C(Nc1cccc(Cl)c1)Nc1ccc2c(c1)C(=O)OC2
Second: Cc1cc(OCC(=O)Nc2cccc(S(=O)(=O)NC3=NCCCCC3)c2)ccc1Cl
The z-score of the first is lower: -0.0474 for the first, 0.419 for the second.

Compared with `Cc1cc(NC(c2cccnc2)c2ccc3cccnc3c2O)no1` (stereo not given), `Cc1cc(NC(=O)CCC(=O)N(c2ccccc2)C(C(=O)NCC2CCCO2)c2cccnc2)no1` (stereo not given) is higher in z-score: -0.344 for the first, -0.0594 for the second.

Going from `COc1ccc(S(=O)(=O)Nc2nc3ccccc3s2)cc1OC` to `COc1ccccc1NS(=O)(=O)c1cccc(NC(=O)c2ccc3ccccc3n2)c1`, the z-score rises from -0.209 to 0.343.

Going from `CCC(C)NC(=O)CCS(=O)(=O)c1ccc(Br)s1` (stereo not given) to `CCNS(=O)(=O)c1ccc(CCC(=O)NC2CCCC2)cc1`, the z-score falls from -0.0618 to -0.104.

Going from `Fc1ccc(CSc2ccc(-c3ccco3)nn2)cc1` to `Cc1cccc(-c2noc(CN(C(C)C)S(=O)(=O)c3ccc(F)cc3)n2)c1`, the z-score rises from 0.169 to 0.279.

First: CCCC1=C(C(=O)OCC)C(c2ccc(NC(C)=O)cc2)NC(=O)N1 (stereo not given)
Second: CCCCC(=O)Nc1ccc(C(=O)NNC(=O)c2ccc(C)c(Br)c2)cc1
The z-score of the first is lower: -0.453 for the first, -0.00519 for the second.

First: Cc1ccc(Nc2nnc(SCC(=O)NCCN3C(=O)CSC3=O)s2)cc1C
Second: Cc1cc(C)n(C(=O)CCN2C(=O)c3ccccc3C2=O)n1
The z-score of the first is lower: -0.143 for the first, -0.0349 for the second.

Going from `CCCC(=O)N(C)c1nnc(-c2ccc(OC)cc2)s1` to `COc1ccc(CNC(=O)CSc2nnc(Cn3nnc4ccccc43)n2C)cc1`, the z-score falls from -0.0873 to -0.104.

Going from `COc1cccc(NC(=O)COc2ccccc2C(N)=O)c1` to `CSc1cccc(NC(=O)CN2C(=O)c3ccccc3S2(=O)=O)c1`, the z-score falls from -0.308 to -0.451.

First: Cc1ccccc1-c1nc(CN2CCCC(C(=O)NCCCN3CCOCC3)C2)c(C)o1 (stereo not given)
Second: COc1ccc(CCNC(=O)C2CCN(c3ccc(N4CCOCC4)nn3)CC2)c(OC)c1
The z-score of the first is lower: -0.359 for the first, -0.106 for the second.

Compared with `CCN(CC)c1nc2ccccc2c(N)c1-c1ccccc1`, `CCc1c(O)nc(SCC(=O)Nc2ccccc2)n(-c2ccccc2)c1=O` is higher in z-score: 0.0637 for the first, 0.0843 for the second.

Compared with `O=C(CSc1nnnn1C1CCCCC1)NCCc1ccccc1`, `O=C(CCCc1nc(-c2ccccc2Cl)no1)NC1CCCCC1` is lower in z-score: -0.0619 for the first, -0.158 for the second.

Compared with `Cc1ccc2nsnc2c1S(=O)(=O)NC1CC1`, `COc1cc(/C=N/NC(=O)Nc2cccc3nsnc23)cc(OC)c1OC` is lower in z-score: 0.516 for the first, 0.0319 for the second.

Compared with `O=C(NCc1ccc2c(c1)OCO2)C1CC(c2ccccc2O)=NO1` (stereo not given), `O=C(NCc1ccc2c(c1)OCO2)C1(S(=O)(=O)c2ccccc2)CC1` is lower in z-score: 0.36 for the first, 0.121 for the second.

First: Cc1ccc(S(=O)(=O)CC(=O)c2ccc(C)c([N+](=O)[O-])c2)cc1
Second: Cc1cc(C(=O)C(=O)NC(C)C)c(C)n1-c1ccc([N+](=O)[O-])cc1
The z-score of the first is lower: -0.799 for the first, -0.134 for the second.

Compared with `O=C1c2ccccc2NC(c2ccccc2)N1c1ccc(O)cc1` (stereo not given), `CN(C)c1ccc(C2N(c3ccc(F)cc3)C(=O)C3CCCN32)cc1` (stereo not given) is higher in z-score: -0.733 for the first, -0.532 for the second.

Going from `c1ccc(NC2=Nc3ccccc3CS2)cc1` to `O=C1Cn2c(nc3ccccc32)N1c1ccccc1F`, the z-score falls from 0.634 to -0.0143.

Going from `CN(C)c1nc2c(c(=O)n(C)c(=O)n2C)n1Cc1ccccc1` to `Cc1cc(C)c2c(=O)[nH]c(=O)n(Cc3ccccc3)c2n1`, the z-score falls from -0.149 to -1.72.

First: O=C1CCCC/C1=C/Nc1ccc(S(=O)(=O)Nc2ncccn2)cc1
Second: O=C(Nc1sc2c(c1C(=O)c1ccccc1)CCCC2)c1cccnc1
The z-score of the first is higher: -0.108 for the first, -0.389 for the second.

Going from `Cc1ccc(/C=N/N=C/c2ccc(C)cc2)cc1` to `Cc1ccc(C(=O)/C=C/Nc2ccccn2)cc1`, the z-score rises from 0.118 to 0.718.

Going from `COc1ccc(N2C(=O)/C(=C/c3cccs3)NC2=S)cc1` to `CC1S/C(=C(\C#N)C(=O)NCc2ccco2)N(c2ccc(F)cc2)C1=O` (stereo not given), the z-score falls from 1.07 to -0.184.

Compared with `CC(=O)Nc1ccccc1NC(=O)CC(C)(C)C`, `N=c1ccn(CC(=O)NC(N)=O)c2ccccc12` is lower in z-score: -0.0428 for the first, -0.291 for the second.

Compared with `CCN(CC)CCNC(=O)c1cn(CC)c2ccc(S(=O)(=O)N(C)C)cc2c1=O`, `CCN(CC)CCn1cnc2c([nH]c3cccc(OC)c32)c1=O` is higher in z-score: -0.0651 for the first, -0.0646 for the second.

First: CCOC(=O)c1c(C)[nH]c(C(=O)CSc2nnc(C3CC3)n2N)c1C
Second: CCOC(=O)Cc1csc(NC(=O)CSc2nnnn2-c2ccc(CC)cc2)n1
The z-score of the first is lower: -1.17 for the first, 1.16 for the second.

Going from `COc1cc(OC)nc(Oc2ccccc2C(=O)Oc2cccc(C)c2)n1` to `COc1ccccc1N1CCN(C(=O)COc2cc(C)ccc2C)CC1`, the z-score falls from -0.386 to -0.57.

Going from `CC1CCc2nc(NC(=O)CCSc3ccccc3)sc2C1` (stereo not given) to `O=C(CCSc1ccccc1)Nc1ccc(S(=O)(=O)N2CCOCC2)cc1`, the z-score falls from 0.184 to -0.763.

Compared with `CSc1nnc(-c2cccs2)n1-c1ccccc1`, `N/C(Cc1cccs1)=N\OC(=O)COc1ccccc1` is lower in z-score: -0.228 for the first, -1.06 for the second.

Going from `O=C(NC1CCCC1)c1ccc(COCC(F)(F)C(F)F)o1` to `O=C(Cc1c(O)c2ccccc2[nH]c1=O)OC1CCCCC1`, the z-score rises from -0.0137 to 0.369.

Going from `O=C(CN1C(=O)CC(c2ccco2)Sc2ccccc21)NCC1CCCO1` (stereo not given) to `COc1cccc(CNC(=O)C(=O)NCC(c2ccco2)N2CCOCC2)c1` (stereo not given), the z-score rises from -0.326 to -0.165.

First: CCCNC(=O)COC(=O)/C=C/c1ccco1
Second: CCOC(=O)c1c(NC(=O)c2ccco2)sc(C(=O)N2CCCC2)c1C
The z-score of the first is higher: -0.162 for the first, -1.56 for the second.

First: CCCOC(=O)C1C2C=CC3(CN(c4cccc(Cl)c4)C(=O)C13)O2 (stereo not given)
Second: Cc1ccc(CN2CC34C=CC(O3)C(C(=O)NCc3ccco3)C4C2=O)cc1 (stereo not given)
The z-score of the first is lower: 0.308 for the first, 1.13 for the second.

Going from `Clc1ccc(C2=NNC(=NCC3CCCO3)SC2)cc1` (stereo not given) to `O=C(c1ccc(Cl)cc1)N1CCN(c2ccc(F)cc2)CC1`, the z-score rises from -0.14 to -0.107.

First: CCOc1ccc(Nc2nc(Cc3nnc(SCC(=O)c4ccc(C)cc4)o3)cs2)cc1
Second: Cc1ccc(CCNC(=O)CCSCc2ccc(Cl)cc2)cc1
The z-score of the first is lower: 0.418 for the first, 0.898 for the second.

Going from `CCOC(=O)c1sc2nc(SCC#N)n(CCCN3CCCC3=O)c(=O)c2c1C` to `O=C(CCCn1c(=O)[nH]c2cc(Cl)ccc2c1=O)NCCCN1CCCC1=O`, the z-score rises from -0.259 to 0.338.

First: Cc1cc(NC(=O)/C(C#N)=C/c2ccco2)n(-c2ccccc2)n1
Second: CCc1cc(C(=O)Cc2cnn(-c3ccccc3)c2)c(O)cc1O
The z-score of the first is lower: -0.178 for the first, 0.114 for the second.

First: C/C(=N/NC(=O)CSc1ccccn1)c1ccc([N+](=O)[O-])cc1
Second: Cc1c(NC(=O)CC(O)(C(F)(F)F)C(F)(F)F)c(=O)n(-c2ccccc2)n1C
The z-score of the first is lower: -0.329 for the first, -0.318 for the second.

Compared with `O=C(Nc1nccs1)c1ccc(Br)o1`, `CC1=C(C(=O)O)N2C(=O)C(NC(=O)c3ccn(C)n3)C2SC1` (stereo not given) is lower in z-score: 1.14 for the first, -0.158 for the second.

Going from `CCN(CC)C(=O)C1CC(=O)N(c2ccc(F)c(Cl)c2)C1` (stereo not given) to `Cc1ccc(N2CC(C(=O)OCC(=O)C(C)(C)C)CC2=O)cc1` (stereo not given), the z-score falls from -0.0387 to -1.06.

First: CCOc1ccc(N2C(=O)C3CC(C)=C(C)CC3C2=O)c([N+](=O)[O-])c1 (stereo not given)
Second: Cc1cc(C)n(-c2nc3ccccc3nc2N2CCCC2)n1
The z-score of the first is higher: -0.225 for the first, -0.364 for the second.

`CCOC(=O)c1c(-c2ccccc2)nnn1-c1nc(OC)nc(N2CCOCC2)n1` showed a z-score of -0.476.

For `CC1=C(n2nnc3ccccc32)C(c2ccccc2)C(C#N)=C(N)O1` (stereo not given), the z-score was active: 3.38.
For `Cc1csc(NC(=O)C(Cc2ccccc2)n2cccc2)n1` (stereo not given), the z-score was active: 5.2.
For `COC(=O)NC(=S)Nc1ccc(Oc2ccc(Cl)cc2Cl)c(Cl)c1`, the z-score was active: 3.69.
